The labels stand for the following.
T1: sortilin on the surface of U-251 and PC-3 cells (human (endogenous in U-251 and PC-3), UniProt Q99523 78-831)
T1 sequence (looked up): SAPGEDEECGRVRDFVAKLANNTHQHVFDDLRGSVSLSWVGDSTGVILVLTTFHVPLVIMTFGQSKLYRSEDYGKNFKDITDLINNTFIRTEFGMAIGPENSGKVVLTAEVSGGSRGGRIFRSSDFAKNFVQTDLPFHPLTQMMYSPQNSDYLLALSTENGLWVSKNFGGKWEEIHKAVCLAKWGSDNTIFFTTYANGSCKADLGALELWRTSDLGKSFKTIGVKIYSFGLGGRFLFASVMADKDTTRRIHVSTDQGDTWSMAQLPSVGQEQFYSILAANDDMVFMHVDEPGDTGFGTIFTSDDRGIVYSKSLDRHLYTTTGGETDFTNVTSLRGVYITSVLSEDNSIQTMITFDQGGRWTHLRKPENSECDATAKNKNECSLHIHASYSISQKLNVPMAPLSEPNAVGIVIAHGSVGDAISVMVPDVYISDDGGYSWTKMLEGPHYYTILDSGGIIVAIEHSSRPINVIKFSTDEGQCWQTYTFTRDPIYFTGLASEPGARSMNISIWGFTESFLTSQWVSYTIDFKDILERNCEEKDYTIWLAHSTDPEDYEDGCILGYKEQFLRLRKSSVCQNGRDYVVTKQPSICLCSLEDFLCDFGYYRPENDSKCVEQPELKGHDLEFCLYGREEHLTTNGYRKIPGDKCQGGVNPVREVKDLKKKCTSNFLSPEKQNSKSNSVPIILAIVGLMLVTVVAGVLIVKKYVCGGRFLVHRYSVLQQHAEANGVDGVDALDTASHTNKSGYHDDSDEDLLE

T2: human sortilin (R&D Systems, 3154-ST) (human, UniProt Q99523 78-755)
T2 construct: sortilin, human, recombinant protein bought from R&D Systems (3154-ST); also called hSort; SORT1; source: bought: R&D Systems (3154-ST)
T2 sequence (looked up): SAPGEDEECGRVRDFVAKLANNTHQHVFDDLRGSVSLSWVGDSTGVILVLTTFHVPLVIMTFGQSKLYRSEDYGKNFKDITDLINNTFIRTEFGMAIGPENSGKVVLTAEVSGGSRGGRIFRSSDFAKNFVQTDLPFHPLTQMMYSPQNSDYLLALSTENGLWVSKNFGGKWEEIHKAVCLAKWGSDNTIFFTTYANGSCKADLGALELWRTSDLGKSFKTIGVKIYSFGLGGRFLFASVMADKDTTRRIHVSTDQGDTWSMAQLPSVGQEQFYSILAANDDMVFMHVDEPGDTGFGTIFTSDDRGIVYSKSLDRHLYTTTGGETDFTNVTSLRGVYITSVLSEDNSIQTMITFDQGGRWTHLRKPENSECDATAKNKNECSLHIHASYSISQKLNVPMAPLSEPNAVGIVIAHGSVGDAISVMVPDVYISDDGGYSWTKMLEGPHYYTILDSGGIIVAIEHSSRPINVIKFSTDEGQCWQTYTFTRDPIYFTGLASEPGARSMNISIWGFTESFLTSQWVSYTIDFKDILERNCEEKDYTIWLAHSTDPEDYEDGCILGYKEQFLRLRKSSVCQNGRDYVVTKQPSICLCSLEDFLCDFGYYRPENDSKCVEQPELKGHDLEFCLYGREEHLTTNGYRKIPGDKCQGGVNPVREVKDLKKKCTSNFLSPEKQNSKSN

B1: ABD-A3-PGRNC15* (His6-ABD035-G4S-A3-PGRNC15*) (designed binder)
chain: LAEAKVLANRELDKYGVSDFYKRLINKAKTVEGVEALKLHILAALPGGGGSVDNKFNKEIEEAGAEIIQLPNLNRWQKGAFIVSLKDDPSQSANLLAEAKKLNDAQAPKRWDAPLRDPGLRQLL
B2: ABD-A3-PGRNC21* (His6-ABD035-G4S-A3-PGRNC21*) (designed binder)
chain: LAEAKVLANRELDKYGVSDFYKRLINKAKTVEGVEALKLHILAALPGGGGSVDNKFNKEIEEAGAEIIQLPNLNRWQKGAFIVSLKDDPSQSANLLAEAKKLNDAQAPKLRREAPRWDAPLRDPGLRQLL
B3: ABD-A3-PGRNC6* (His6-ABD035-G4S-A3-PGRNC6*) (designed binder)
chain: LAEAKVLANRELDKYGVSDFYKRLINKAKTVEGVEALKLHILAALPGGGGSVDNKFNKEIEEAGAEIIQLPNLNRWQKGAFIVSLKDDPSQSANLLAEAKKLNDAQAPKGLRQLL
B4: ABD-A3-PGRNC18* (His6-ABD035-G4S-A3-PGRNC18*) (designed binder)
chain: LAEAKVLANRELDKYGVSDFYKRLINKAKTVEGVEALKLHILAALPGGGGSVDNKFNKEIEEAGAEIIQLPNLNRWQKGAFIVSLKDDPSQSANLLAEAKKLNDAQAPKEAPRWDAPLRDPGLRQLL
B5: ABD-A3-PGRNC3 (His6-ABD035-G4S-A3-PGRNC3) (designed binder)
chain: LAEAKVLANRELDKYGVSDFYKRLINKAKTVEGVEALKLHILAALPGGGGSVDNKFNKEIEEAGAEIIQLPNLNRWQKGAFIVSLKDDPSQSANLLAEAKKLNDAQAPKQLL
B6: ABD-A3-PGRNC12* (His6-ABD035-G4S-A3-PGRNC12*) (designed binder)
chain: LAEAKVLANRELDKYGVSDFYKRLINKAKTVEGVEALKLHILAALPGGGGSVDNKFNKEIEEAGAEIIQLPNLNRWQKGAFIVSLKDDPSQSANLLAEAKKLNDAQAPKAPLRDPGLRQLL
B7: ABD-A3-PGRNC9* (His6-ABD035-G4S-A3-PGRNC9*) (designed binder)
chain: LAEAKVLANRELDKYGVSDFYKRLINKAKTVEGVEALKLHILAALPGGGGSVDNKFNKEIEEAGAEIIQLPNLNRWQKGAFIVSLKDDPSQSANLLAEAKKLNDAQAPKRDPGLRQLL

The koff is the rate constant with which the complex falls apart. What is called kon is a measure of how fast the partners come together.

One assay deals with T1, sortilin on the surface of U-251 and …. The assay can be described thus: cell-based or functional assay.
Settings: not given
Consider B1, for which the “PGRN clearance assay: EC50 of the increase of extracellular PGRN (ELISA) after 72 h on U-251 cells; the pair blocked is sortilin and secreted PGRN” value is 1.3 nM; the “PGRN clearance assay: fold increase of extracellular PGRN (ELISA) against untreated U-251 cells after 72 h, increasing concentrations up to 500 nM” value was 2.5 fold.

A further assay has as its target T2, human sortilin (R&D Systems, 3154-ST). Briefly: SPR; Biacore 8K, affinity determination of second-generation constructs; 30-100 RU of ABD035-containing constructs captured on immobilised HSA (CM5); 1-200 nM human sortilin injected 180 s at 30 µl/min, 25°C, PBST; 60 min dissociation; 1:1 Langmuir fit; apparent constants; n=3 technical replicates. The following applies: both partners purified.
With B2, the Kd was determined as 0.215 nM, the off-rate constant (koff) came out at 6.98e-05 s⁻¹ and the association rate constant (kon) came out at 325000 M⁻¹ s⁻¹.

Consider B3, for which the Kd came to 0.289 nM, the koff was 8.09e-05 s⁻¹ and the association rate constant (kon) turned out to be 281000 M⁻¹ s⁻¹.

B1: the Kd turned out to be 0.185 nM, the koff worked out at 5.94e-05 s⁻¹ and the kon is 321000 M⁻¹ s⁻¹.

As to B4, the Kd stood at 0.217 nM, the dissociation rate constant (koff) came to 6.69e-05 s⁻¹ and the kon amounted to 308000 M⁻¹ s⁻¹.

On to B5, for which the Kd stood at 3.93 nM, the dissociation rate constant (koff) was 0.00295 s⁻¹ and the on-rate constant (kon) worked out at 752000 M⁻¹ s⁻¹.

Regarding B6, the Kd was determined as 0.251 nM, the koff was 7.12e-05 s⁻¹ and the kon was 283000 M⁻¹ s⁻¹.

Take B7: the Kd was determined as 0.224 nM, the koff worked out at 5.95e-05 s⁻¹ and the kon was 265000 M⁻¹ s⁻¹.
